# Test results taken from PubChem BioAssay AID924 (National Center for Advancing Translational Sciences (NCATS), 2007).
# Among all 130,000 compounds or so, about 1,200 (0.92%) were called active. Inconclusive results, whose numbers are uncertain, are shown with a selection of clear calls. Calls come from the whole dose curve; as a rule, active = well fitted cell-killing curve with a large enough effect; inconclusive = small, poorly fitted or top-dose-only effect; inactive = no such curve, though single readings can be large or run the other way. Potencies of inconclusive entries are doubtful fits and often do not repeat.
# Assay: qHTS Screen for Compounds that Selectively Target Cancer Cells with p53 Mutations: Cytotoxicity of p53ts Cells at the Permissive Temperature; note: nearly all actives have a fitted effect of over 55% in size;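 for activity change, negative = cytotoxicity: 0% = DMSO and -100% = full killing by reference compound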
# Settings: H1299-p53A138V at 32C, ATP luminescence viability, 24 h; activity change, negative = cytotoxicity: at 46.1 µM (top of the series)
# Method in brief: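 H1299-p53 A138V cells (temperature-sensitive p53) exposed 24 h to up to 46 uM compound at 32C, where p53 is wild-type in conformation. Viability read as ATP luminescence and normalised to DMSO and 100 uM tamoxifen. AC50 fitted with the Hill equation.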
# Potency is the fitted concentration of half-maximal effect; tags give direction and shape of the fitted curve.
SMILES,Potency,"activity change, negative = cytotoxicity"
CCOC(=O)C1CCCN(c2cc(C)nc3cc(-c4ccc(F)cc4)nn23)C1 (configuration not stated),"inconclusive: 25.1 µM [cytotoxic, single point]",–
O=C(CN1C(=O)c2cccnc2C1=O)c1ccccc1,"inconclusive: 1.78 µM [cytotoxic, partial curve, poor fit]",–
Cc1cc(O)c(C=O)c2c1C(=O)Oc1c(COC(=O)/C=C/C(=O)O)c(O)c(C(=O)O)c(C)c1O2,–,inactive: 3.83%
S=C(c1ccc(-c2ccccc2Cl)o1)N1CCOCC1,"inconclusive: 12.6 µM [cytotoxic, single point]",–
COc1ccc(-c2nc(SCCOc3ccccc3Cl)n3[nH]c(=O)cc3n2)cc1,–,inactive: 6.79%
CCN1C(C(=O)c2ccccc2)=C(OC(=O)c2ccccc2OC)c2ccccc2S1(=O)=O,"inconclusive: 31.6 µM [cytotoxic, single point]",–
Cc1cccc(-n2ncc3c(NC4CCCCC4)ncnc32)c1,active: 10 µM,–
COc1ccccc1Nc1nn2c(=O)c3ccc(C(=O)N4CCCC(C)C4)cc3nc2s1 (configuration not stated),"inconclusive: 31.6 µM [cytotoxic, single point]",–
COc1ccc(Nc2nc(N)c3cc(OC)c(OC)cc3n2)cc1,"inconclusive: 10 µM [cytotoxic, partial curve]",–
CC1CCc2c(sc(NC(=O)C3c4ccccc4Oc4ccccc43)c2C(=O)OC(C)C)C1 (configuration not stated),–,inactive: -3.72%
COc1ccc(-c2nnc(NC(=O)c3cc(C)on3)s2)cc1,"inconclusive: 12.6 µM [cytotoxic, partial curve]",–
O=c1cc(-c2ccccc2)nc2nc(-c3ccccc3)[nH]n12,"inconclusive: 15.8 µM [cytotoxic, single point]",–
COc1cc(/C=C(\C#N)c2nc3ccccc3[nH]2)ccc1OCc1cccc(C(F)(F)F)c1,active: 12.6 µM,–
COc1ccc(-c2nn3c(-c4ccccc4C)nnc3c3ccccc23)cc1,–,inactive: 25.2%
Fc1ccc2[nH]c3c(N4CCSCC4)ncnc3c2c1,"inconclusive: 12.6 µM [cytotoxic, partial curve]",–
Cc1nc2cc(NC(=O)NCc3ccco3)ccc2o1,"inconclusive: 25.1 µM [cytotoxic, single point]",–
O=C(CCS(=O)(=O)c1nc(-c2ccc3c(c2)OCO3)cc(C(F)(F)F)n1)Nc1ccc(Br)cc1,"inconclusive: 25.1 µM [cytotoxic, single point]",–
COc1cccc(-c2cc(C(=O)N3CCCc4ccccc43)no2)c1,"inconclusive: 31.6 µM [cytotoxic, single point]",–
CCOc1ccc(C2C(C(=O)Nc3ccccc3C)=C(C)Nc3nnnn32)cc1 (configuration not stated),–,inactive: 3.75%
Cc1ccc(CN2CCC(CNC(=O)Nc3ccc(C)c(C)c3)C2)cc1 (configuration not stated),"inconclusive: 11.2 µM [cytotoxic, partial curve, poor fit]",–
Cc1cc(NC(=O)CCCS(=O)(=O)c2nc(-c3cccs3)cc(C(F)(F)F)n2)no1,"inconclusive: 31.6 µM [cytotoxic, single point]",–
CC(=O)CSc1nnc(-c2ccc3c(c2)OCO3)o1,"inconclusive: 11.2 µM [cytotoxic, partial curve]",–
CS(=O)(=O)c1ccc(CNC(=O)[C@H]2C[C@@H]2[C@H](NP(=O)(c2ccccc2)c2ccccc2)c2ccccc2)cc1,–,inactive: 6.3%
CCN(CC)CCOC(=O)c1ccc(NC(=O)c2cc3c(s2)-c2ccccc2OC3)cc1,"inconclusive: 25.1 µM [cytotoxic, single point]",–

SMILES,Potency,"activity change, negative = cytotoxicity"
CSc1n[nH]c(NCc2ccc(Cl)cc2)n1,–,inactive: -22%
COc1cc2[nH]c3c(N4CCN(c5ccccn5)CC4)ncnc3c2cc1OC,"inconclusive: 15.8 µM [cytotoxic, single point]",–
Nc1ccn([C@H]2O[C@@H](COP(=O)(O)O)[C@@H](O)[C@H]2O)c(=O)n1,–,inactive: -5.97% [at 9.22 µM]
Cc1ccc2c(c1)c1nc3ccccc3nc1n2CCN1CCOCC1,–,inactive: 0.918%
Cc1ccc(CNC(=O)C(=O)Nc2c3c(nn2-c2ccc(F)cc2)CSC3)cc1,–,inactive: -7.13%
CCc1c(C)c2ccc(O)c(CN3CCN(c4cc(Cl)ccc4C)CC3)c2oc1=O,–,inactive: -22%
Cc1cc(=O)n2c(C)n[nH]c2n1,–,inactive: -3.65%
O=c1cc(CSc2nnc(-c3cccs3)n2Cc2ccccc2)nc2sc3ccccc3n12,–,inactive: 6.98%
CCCCN(CC)C(=O)CSc1nc2n[nH]c(C)c2c(=N)n1-c1ccc(CC)cc1,–,inactive: 0.129%
O=C(c1ccco1)n1c(=S)nc2ccccn21,–,inactive: -4%
CC(=O)Nc1cccc(-c2nc(-c3ccccc3)no2)c1,"inconclusive: 10 µM [cytotoxic, partial curve]",–
c1cc(-c2nnc(-c3ccncc3)o2)ccn1,–,inactive: 31.5%
Nc1c(C(=O)Nc2ccccc2Br)sc2nc(-c3cccs3)ccc12,"inconclusive: 31.6 µM [cytotoxic, single point]",–
CN(C)c1ccc(C(=O)OCC(=O)c2cccs2)cc1,"inconclusive: 7.94 µM [cytotoxic, partial curve]",–
O=C(Cn1nc(C(F)(F)F)c2c1CCCC2)Nc1cccc(Cl)c1,"inconclusive: 35.5 µM [cytotoxic, single point]",–
Cn1c2ccc(F)cc2c2ncn(CCN3CCOCC3)c(=O)c21,–,inactive: 1.55%
COc1ccc2nc(NC(=O)c3nc(SCc4ccccc4F)ncc3Cl)sc2c1,–,inactive: 5.37%
Cc1c(-c2nc(-c3ccccc3F)no2)nnn1-c1cc(F)ccc1F,"inconclusive: 3.16 µM [cytotoxic, full curve]",–
O=c1oc2cc(O)ccc2cc1-c1nnc(Nc2ccccc2F)s1,"inconclusive: 5.01 µM [cytotoxic, partial curve]",–
Cc1ccc(C(=O)Oc2c(S(=O)(=O)c3ccccc3)c(C)nn2-c2ccccc2)cc1,–,inactive: 9.81%
COc1ccc2cc3cc(C(=O)N4CCN(Cc5ccc6c(c5)OCO6)CC4)oc3nc2c1,"inconclusive: 31.6 µM [cytotoxic, single point]",–
COCCCNC(=O)c1ccc2nc3ccccc3c(=O)n2c1,"inconclusive: 20 µM [cytotoxic, single point]",–
O=C(Nc1ccc2nn(-c3ccccc3)nc2c1)c1ccc(Br)o1,"inconclusive: 31.6 µM [cytotoxic, single point]",–
